# Measured values: the supplement of paper PMC4604168 (melanoma cell lines)
# This is one part of the list. Most values come without repeats; read them as rough.
# System: A101D
# Assay: cell count relative to DMSO control; melanoma cells; higher = more viable cells
# Settings: library dose: low library concentration; 72 h
# 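Also: cell number obtained by counting DAPI-stained nuclei in high-throughput microscope images with image analysis software, screen run in 1,536-well plates.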
row,Structure (SMILES),cell count [%]
1,"NC(=O)c1ccc(N(C(N)=O)c2c(F)cccc2F)nc1-c1ccc(F)cc1F + Cn1cncc1[C@@](N)(c1ccc(Cl)cc1)c1ccc2c(c1)c(-c1cccc(Cl)c1)cc(=O)n2C [tipifarnib] (first compound 0.4 µM, partner dose 0.01 µM)",94
2,"NC(=O)c1ccc(N(C(N)=O)c2c(F)cccc2F)nc1-c1ccc(F)cc1F + CO[C@@H]1[C@H](N(C)C(=O)c2ccccc2)C[C@H]2O[C@]1(C)n1c3ccccc3c3c4c(c5c6ccccc6n2c5c31)C(=O)NC4 [Midostaurin] (first compound 0.4 µM, partner dose 0.08 µM)",84.7
3,"NC(=O)c1ccc(N(C(N)=O)c2c(F)cccc2F)nc1-c1ccc(F)cc1F + CN(NC(=O)CC(=O)NN(C)C(=S)c1ccccc1)C(=S)c1ccccc1 [STA4783] (first compound 0.4 µM, partner dose 0.006 µM)",84.2
4,"Cc1ccc(NC(=O)c2cccc(N(C)C)c2)cc1NC(=O)c1ccc(O)cc1 + O=C(O)c1ccc(-c2c[nH]c3ncc(-c4ccccc4)cc23)cc1C1CCCC1 [GSK650394] (first compound 2 µM, partner dose 0.16 µM)",89.9
5,"NC(=O)c1ccc(N(C(N)=O)c2c(F)cccc2F)nc1-c1ccc(F)cc1F + Cc1cc(N2CCOCC2)cc2[nH]c(-c3c(NC[C@@H](O)c4cccc(Cl)c4)cc[nH]c3=O)nc12 [BMS536924] (first compound 0.4 µM, partner dose 0.2 µM)",89.4
6,"NC(=O)c1ccc(N(C(N)=O)c2c(F)cccc2F)nc1-c1ccc(F)cc1F + COc1cc(Nc2ncc(F)c(Nc3ccc4c(n3)NC(=O)C(C)(C)O4)n2)cc(OC)c1OC [Tamatinib] (first compound 0.4 µM, partner dose 0.4 µM)",91.5
7,"CCCCCCCCc1ccc(CCC(N)(CO)CO)cc1 [fingolimod] + CN(C)S(=O)(=O)c1ccc2c(c1)/C(=C/c1cc3c([nH]1)CCCC3)C(=O)N2 [SU6656] (first compound 2 µM, partner dose 0.4 µM)",57.1
8,"CCCCCCCCc1ccc(CCC(N)(CO)CO)cc1 [fingolimod] + OCCn1cc(-c2cnc3nnn(Cc4ccc5ncccc5c4)c3n2)cn1 [PF04217903] (first compound 2 µM, partner dose 1 µM)",99.8
9,"NC(=O)c1ccc(N(C(N)=O)c2c(F)cccc2F)nc1-c1ccc(F)cc1F + NC(=O)Nc1cc(-c2cccc(F)c2)sc1C(=O)N[C@H]1CCCNC1 [AZD7762] (first compound 0.4 µM, partner dose 0.02 µM)",76.1
10,"NC(=O)c1ccc(N(C(N)=O)c2c(F)cccc2F)nc1-c1ccc(F)cc1F + O=C(O)c1ccc(-c2c[nH]c3ncc(-c4ccccc4)cc23)cc1C1CCCC1 [GSK650394] (first compound 0.4 µM, partner dose 0.16 µM)",108
11,"CCCCCCCCc1ccc(CCC(N)(CO)CO)cc1 [fingolimod] + COc1cc(Nc2ncc(F)c(Nc3ccc4c(n3)NC(=O)C(C)(C)O4)n2)cc(OC)c1OC [Tamatinib] (first compound 2 µM, partner dose 0.4 µM)",79.3
12,"CC(C)(C)c1cnc(CSc2cnc(NC(=O)C3CCNCC3)s2)o1 + O=C(Nc1cccc(Cl)c1)Nc1ncc(CCNc2ncnc3ccsc23)s1 [SNS314] (first compound 0.01 µM, partner dose 0.0008 µM)",96.4
13,"Cc1ccc(NC(=O)c2cccc(N(C)C)c2)cc1NC(=O)c1ccc(O)cc1 + COc1cc2c(Oc3ccc4[nH]c(C)cc4c3F)ncnc2cc1OCCCN1CCCC1 [cediranib] (first compound 2 µM, partner dose 0.4 µM)",106
14,"NC(=O)c1ccc(N(C(N)=O)c2c(F)cccc2F)nc1-c1ccc(F)cc1F + C[C@@H]1CCN(C(=O)CC#N)C[C@@H]1N(C)c1ncnc2[nH]ccc12 [CP690550] (first compound 0.4 µM, partner dose 1 µM)",97.2
15,"NC(=O)c1ccc(N(C(N)=O)c2c(F)cccc2F)nc1-c1ccc(F)cc1F + CC(C)(C)c1cnc(CSc2cnc(NC(=O)C3CCNCC3)s2)o1 [SNS-032] (first compound 0.4 µM, partner dose 0.01 µM)",86.4
16,"CCCCCCCCc1ccc(CCC(N)(CO)CO)cc1 [fingolimod] + CC1(C)NC(=O)N(c2ccc([N+](=O)[O-])c(C(F)(F)F)c2)C1=O [nilutamide] (first compound 2 µM, partner dose 1 µM)",85.3
17,"Cc1ccc(NC(=O)c2cccc(N(C)C)c2)cc1NC(=O)c1ccc(O)cc1 + CO[C@@H]1[C@H](N(C)C(=O)c2ccccc2)C[C@H]2O[C@]1(C)n1c3ccccc3c3c4c(c5c6ccccc6n2c5c31)C(=O)NC4 [Midostaurin] (first compound 2 µM, partner dose 0.08 µM)",89.8

row,Structure (SMILES),cell count [%]
1,"CCCCCCCCc1ccc(CCC(N)(CO)CO)cc1 [fingolimod] + Cc1cc(N2CCOCC2)cc2[nH]c(-c3c(NC[C@@H](O)c4cccc(Cl)c4)cc[nH]c3=O)nc12 [BMS536924] (first compound 2 µM, partner dose 0.2 µM)",80.4
2,"CCCCCCCCc1ccc(CCC(N)(CO)CO)cc1 [fingolimod] + O=C(O)c1ccc(-c2c[nH]c3ncc(-c4ccccc4)cc23)cc1C1CCCC1 [GSK650394] (first compound 2 µM, partner dose 0.16 µM)",87.9
3,"Cc1ccc(NC(=O)c2cccc(N(C)C)c2)cc1NC(=O)c1ccc(O)cc1 + OCCn1cc(-c2cnc3nnn(Cc4ccc5ncccc5c4)c3n2)cn1 [PF04217903] (first compound 2 µM, partner dose 1 µM)",94.6
4,"NC(=O)c1ccc(N(C(N)=O)c2c(F)cccc2F)nc1-c1ccc(F)cc1F + C=CCn1c(=O)c2cnc(Nc3ccc(N4CCN(C)CC4)cc3)nc2n1-c1cccc(C(C)(C)O)n1 [MK1775] (first compound 0.4 µM, partner dose 0.02 µM)",75.7
5,"CC(C)(C)c1cnc(CSc2cnc(NC(=O)C3CCNCC3)s2)o1 + CN(NC(=O)CC(=O)NN(C)C(=S)c1ccccc1)C(=S)c1ccccc1 [STA4783] (first compound 0.01 µM, partner dose 0.006 µM)",80
6,"Cc1ccc(NC(=O)c2cccc(N(C)C)c2)cc1NC(=O)c1ccc(O)cc1 + Cn1cncc1[C@@](N)(c1ccc(Cl)cc1)c1ccc2c(c1)c(-c1cccc(Cl)c1)cc(=O)n2C [tipifarnib] (first compound 2 µM, partner dose 0.01 µM)",85.1
7,"Cc1ccc(NC(=O)c2cccc(N(C)C)c2)cc1NC(=O)c1ccc(O)cc1 + NCC(=O)Nc1ccc(-n2nc(C(F)(F)F)cc2-c2ccc3c(ccc4ccccc43)c2)cc1 [OSU03012] (first compound 2 µM, partner dose 1 µM)",104
8,"CCCCCCCCc1ccc(CCC(N)(CO)CO)cc1 [fingolimod] + CN(NC(=O)CC(=O)NN(C)C(=S)c1ccccc1)C(=S)c1ccccc1 [STA4783] (first compound 2 µM, partner dose 0.006 µM)",57.7
9,"NC(=O)c1ccc(N(C(N)=O)c2c(F)cccc2F)nc1-c1ccc(F)cc1F + COc1cc2c(Oc3ccc4[nH]c(C)cc4c3F)ncnc2cc1OCCCN1CCCC1 [cediranib] (first compound 0.4 µM, partner dose 0.4 µM)",101
10,"NC(=O)c1ccc(N(C(N)=O)c2c(F)cccc2F)nc1-c1ccc(F)cc1F + O=C(Nc1cccc(Cl)c1)Nc1ncc(CCNc2ncnc3ccsc23)s1 [SNS314] (first compound 0.4 µM, partner dose 0.0008 µM)",96.2
11,"CC(C)(C)c1cnc(CSc2cnc(NC(=O)C3CCNCC3)s2)o1 + NC(=O)Nc1cc(-c2cccc(F)c2)sc1C(=O)N[C@H]1CCCNC1 [AZD7762] (first compound 0.01 µM, partner dose 0.02 µM)",88.5
12,"CN(NC(=O)CC(=O)NN(C)C(=S)c1ccccc1)C(=S)c1ccccc1 + COc1cc2c(Oc3ccc4[nH]c(C)cc4c3F)ncnc2cc1OCCCN1CCCC1 [cediranib] (first compound 0.006 µM, partner dose 0.4 µM)",76.6
13,"CCCCCCCCc1ccc(CCC(N)(CO)CO)cc1 [fingolimod] + C[C@@H]1CCN(C(=O)CC#N)C[C@@H]1N(C)c1ncnc2[nH]ccc12 [CP690550] (first compound 2 µM, partner dose 1 µM)",72.2
14,"CCCCCCCCc1ccc(CCC(N)(CO)CO)cc1 [fingolimod] + COc1cc2c(Oc3ccc4[nH]c(C)cc4c3F)ncnc2cc1OCCCN1CCCC1 [cediranib] (first compound 2 µM, partner dose 0.4 µM)",91
15,"CC(C)(C)c1cnc(CSc2cnc(NC(=O)C3CCNCC3)s2)o1 + NCC(=O)Nc1ccc(-n2nc(C(F)(F)F)cc2-c2ccc3c(ccc4ccccc43)c2)cc1 [OSU03012] (first compound 0.01 µM, partner dose 1 µM)",107
16,"CCCCCCCCc1ccc(CCC(N)(CO)CO)cc1 [fingolimod] + NCC(=O)Nc1ccc(-n2nc(C(F)(F)F)cc2-c2ccc3c(ccc4ccccc43)c2)cc1 [OSU03012] (first compound 2 µM, partner dose 1 µM)",65.6
